# From the supplement of paper PMC11417369
# This is one part of the list.
# Tested on: PfSIP2 AP2 domain 1 (GST-tagged)
# Test: gcPBM binding intensity (ln(normalized median fluorescence intensity)); higher = stronger DNA binding
# In short: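 The highest Masliner-normalised natural-log median intensity across replicate spots of either probe orientation is reported as binding intensity. GST-tagged P. falciparum DNA-binding domains expressed in E. coli were applied for 1 h to an Agilent 4 × 180k array of primer-extended double-stranded 36-bp intergenic genomic probes plus negative controls, and bound protein was detected with Alexa488 anti-GST antibody and scanned at 488 nm.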
row,Sequence,gcPBM binding intensity (ln)
1,TATTTATTTATTTATTTATTTATTTATTTATATTTA [CACACA_negctrl_site398],7.21
2,TATATATTTTTATTATGTACATATTAACAATGTGTT [XGTACX_site879],7.18
3,TAAAATATAAAACACACACACATATATATATATATT [CACACA_site224],7.38
4,TTTGAGATAAAAGACTGTACTTAGAATGTATAAAAA [XGTACX_site203],6.88
5,AAAAAAAAAAAAAACTGTACCAAAAAGAATATATAC [XGTACX_site8345],7.15
6,TTTAATTTTATATAGAGTACAAAAAAATAGAAAGAT [XGTACX_site3870],7.88
7,ATATATATATATATATGTACATAAATATTTTAAAAT [XGTACX_site4980],9.67
8,TACTCCTTAAATATATGTAAAGGAAGAAAAAAAAAA [XGTACX_negctrl_site306],6.83
9,TTGTTTCTACAATTTAATAAAATACGTTTTCAAAAA [XGTACX_negctrl_site377],6.74
10,ACAATAAAAATAAAAAGTACAAATAAAAAAAATAAA [XGTACX_site6718],7.15
11,AATATATGTTTAATTTCACACACAAATATACATTTT [CACACA_site9385],7.04
12,ATATATATATATATATGTACACATATACGCTTTTTC [XGTACX_site3838],9.62
13,AACAAATTTATCCAAAGTACAAAATATCATTTCTTA [XGTACX_site4543],6.76
14,AACAACATGTAGACGCGTACCAACATCAGATCCTAT [XGTACX_site4071],6.99
15,ATTATAATTATATATGCATGTAGCATTTTCTATTTT [TGCATGCA_site66],6.66
16,ATTTTATATAATACATGTACAAAAGTTTAAATTTAT [XGTACX_site6196],7.13
17,TATAAATACTAAAAAAGTACAAAATTTCATAAAAAA [XGTACX_site2709],6.93
18,TTATAATATAGCAATTATTAAATAGGATCAAATGAA [CACACA_negctrl_site632],6.77
19,TTCTTTATTTATCATTATAAGAAGAGTTGATTTGTT [XGTACX_negctrl_site555],6.91
20,TATTTGTAAATTATTTGGGTGTGTAGGGGATATTCT [XGTACX_negctrl_site204],6.97
21,CGTTCATATTATTATAGTACATATTATTATAGTTTT [XGTACX_site1550],7.12
22,TTTTTTTTTTTATTTGCATGCGGTGTTCATAATATT [TGCATGCA_site199],6.88
23,TTGGTGGATAAATTTACACACAATAACTTTCGTTCA [CACACA_site6358],6.75
24,AGAAGAAAAGTAAAAAGTACATTATTCATGGCCTAT [XGTACX_site5601],6.63
